These results are taken from publication PMC7819943, “Rice protein-binding microarrays: a tool to detect cis-acting elements near promoter regions in rice”.

The list shows a part of the results.

The test addresses T1, OsWOX13 (Oryza sativa, UniProt Q5QMM3 1-267).
T1 sequence: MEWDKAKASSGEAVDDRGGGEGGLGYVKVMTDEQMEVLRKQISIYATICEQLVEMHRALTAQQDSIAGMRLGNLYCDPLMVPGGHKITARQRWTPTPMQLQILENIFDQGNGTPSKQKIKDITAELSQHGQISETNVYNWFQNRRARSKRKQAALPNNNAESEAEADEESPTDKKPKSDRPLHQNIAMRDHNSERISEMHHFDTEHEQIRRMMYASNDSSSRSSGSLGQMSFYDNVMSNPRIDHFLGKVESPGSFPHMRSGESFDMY
Kind of test: protein-binding microarray (RPBM); PBS, 2% BSA, 51.3 ng/ul salmon testes DNA, 50 uM zinc acetate, 200 nM TF, 25 C, 1 h; high values mean tight binding. The settings on record: protein: recombinant; tags: N-terminal polyhistidine and DsRed monomer fusion (pET32a); label: CyDye5-dUTP incorporated in the synthesized complementary strand; 3' TTTTT single-stranded linker to array surface; dsDNA, one strand shown. In a few lines: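 Binding signal is reported as fluorescence intensity per feature (arbitrary units) from an Axon 4000B scanner. Incubation used 200 nM of each Ni–NTA-purified, N-terminally polyhistidine- and DsRed-fused transcription factor from E. coli BL21-CodonPlus on a double-stranded custom Agilent array for 1 h at 25 °C, with 50 µM zinc acetate in the buffer, followed by washing.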
For “TGTAATTTGTTTTGTTAGTAGACTACGCTTAATACTTCAACGGAGTCACCTAGTGCAG”, the binding signal is 4700 fluorescence intensity (a.u.).

On to “GCTAAATTTCCTCTAAAATTCACATGCAATGTGCCATTCCCGGAGTCACCTAGTGCAG”, for which the binding signal was 4700 fluorescence intensity (a.u.).

For the sequence “TCGTTAATTTGCAACCATACCTTAGCTCCACACTCCACGACGGAGTCACCTAGTGCAG”, the binding signal was 23200 fluorescence intensity (a.u.).

Consider “TGACCATTGCTAGATTGACACTCTGATCTGATCACCGTTGCGGAGTCACCTAGTGCAG”, for which the binding signal is 22400 fluorescence intensity (a.u.).

For the sequence “CTAATTAATATATATATATTGGATATTTCACGTTTTCACGCGGAGTCACCTAGTGCAG”, the binding signal is 23700 fluorescence intensity (a.u.).

In the case of “GTGTTAATTTGCCGCTTGGTTTGCGTGAGTAGTTAAGCATCGGAGTCACCTAGTGCAG”, the binding signal is 19900 fluorescence intensity (a.u.).

On to “ACTCCTTCACATAAATAAACAGAAAGAATGATAGGGCAAACGGAGTCACCTAGTGCAG”, for which the binding signal was 4250 fluorescence intensity (a.u.).

On to “GAGATCACATTAACTAATTGATTAACTAATTACTTCATCCCGGAGTCACCTAGTGCAG”, for which the binding signal was 29600 fluorescence intensity (a.u.).

Regarding “GAATGATTGTTTGTTGAGAATAATTTGTTCAGTCGATCTGCGGAGTCACCTAGTGCAG”, the binding signal was 50900 fluorescence intensity (a.u.).

Turning to “CTTAATTAATTATACACACAAACATTCCCTCCAATGCATGCGGAGTCACCTAGTGCAG”, the binding signal is 37600 fluorescence intensity (a.u.).

As for “ACGAGAAAATCTAATCAACCAAGCTTAGATTAGATCATTACGGAGTCACCTAGTGCAG”, the binding signal was 9510 fluorescence intensity (a.u.).

On to “TCAGCAAATTACACGAAATTTAGATGTTTTGTAGTAAAATCGGAGTCACCTAGTGCAG”, for which the binding signal is 6410 fluorescence intensity (a.u.).

For “TGGATTACTCATAATGATTATGTCATATAGGTGATGTTGCCGGAGTCACCTAGTGCAG”, the binding signal was 6150 fluorescence intensity (a.u.).

In the case of “ATTAAATAATTTCTTTGATAAAATTGTTTTGCAGGCATATCGGAGTCACCTAGTGCAG”, the binding signal was 22300 fluorescence intensity (a.u.).

For the sequence “ATCTCTCTCTCTCTCTCTCTCTCTCTCTCTCTCTCTCTCTCGGAGTCACCTAGTGCAG”, the binding signal was 5190 fluorescence intensity (a.u.).

Take “CGAAAACTAAACAGATGGGAGCAGAATTATCCAATCCCAGCGGAGTCACCTAGTGCAG”: the binding signal was 8610 fluorescence intensity (a.u.).

Turning to “ATTATAAACAGACAAACAGTAGAGCTCACAACTTACCCCGCGGAGTCACCTAGTGCAG”, the binding signal is 7230 fluorescence intensity (a.u.).

For “TGCTTGATTTGACCATCCTACATATATTTCAGAATGGTTCCGGAGTCACCTAGTGCAG”, the binding signal is 23100 fluorescence intensity (a.u.).

In the case of “ACTACCCATCAATTAAACCCGCCCGATTCGCATCTAACGGCGGAGTCACCTAGTGCAG”, the binding signal was 13200 fluorescence intensity (a.u.).

As to “TTGATTGGGATTTGATCAGAGTTCGCCGTTGCGCGCCGTCCGGAGTCACCTAGTGCAG”, the binding signal is 51200 fluorescence intensity (a.u.).

Regarding “GCCTAATTAATCCATGATTAACCATAAGTGCTGCAGTAACCGGAGTCACCTAGTGCAG”, the binding signal was 33500 fluorescence intensity (a.u.).

As for “TTAATTTACACCAGTTTTAGAAATTGGGTAATAACCTATACGGAGTCACCTAGTGCAG”, the binding signal was 4470 fluorescence intensity (a.u.).

Turning to “AAGACAGAAACACCTTAATTTGTTACCAATGGAGCATATGCGGAGTCACCTAGTGCAG”, the binding signal is 4840 fluorescence intensity (a.u.).

On to “TTAATAATTTACGCTATGCCTTTGTTCTATGGCTTCACTACGGAGTCACCTAGTGCAG”, for which the binding signal is 6700 fluorescence intensity (a.u.).

On to “TTCCTGTCTATCATCGGTTCATTGCTTTGATACGCACCACCGGAGTCACCTAGTGCAG”, for which the binding signal was 5120 fluorescence intensity (a.u.).

As to “ATGACAGCCCATCACAGTTTGGACATCCAGATGGGCCAAACGGAGTCACCTAGTGCAG”, the binding signal was 5080 fluorescence intensity (a.u.).

For “TGATAGATAGATTTGTTGTTTCGGCTCGCATTCAATTCAGCGGAGTCACCTAGTGCAG”, the binding signal was 36700 fluorescence intensity (a.u.).

For “ATATGATTTCTGACTCTGTTTTACCATTGTTTTGTTTGTCCGGAGTCACCTAGTGCAG”, the binding signal is 18800 fluorescence intensity (a.u.).

In the case of “CTAATTACACAGTTTGTAGAGAAATCGTGAGACGAAATCTCGGAGTCACCTAGTGCAG”, the binding signal is 3360 fluorescence intensity (a.u.).

Turning to “AAAGTTTGGATTTTGATTGAAATTGAAGATGATGTGACTGCGGAGTCACCTAGTGCAG”, the binding signal was 26700 fluorescence intensity (a.u.).

Consider “GCCAAGTCAATTAAAACCAGGAACAATACTATCGAGGGATCGGAGTCACCTAGTGCAG”, for which the binding signal was 3450 fluorescence intensity (a.u.).

For “GCTGACTGATTACCTTTTCTAGGGTGACCATGATGATTCACGGAGTCACCTAGTGCAG”, the binding signal was 49700 fluorescence intensity (a.u.).

Consider “CCCGTACGTGTTACCTAATCATGATGGGATGCCATAATACCGGAGTCACCTAGTGCAG”, for which the binding signal is 3570 fluorescence intensity (a.u.).

As for “CATTTGCTAATGATGGATTAATTAGGCTTAATAAATTTGTCGGAGTCACCTAGTGCAG”, the binding signal is 19900 fluorescence intensity (a.u.).

As for “AAAATTAATTTTCATATTTGGCTTCCAATGCCACGCCGAGCGGAGTCACCTAGTGCAG”, the binding signal is 34300 fluorescence intensity (a.u.).

Turning to “AGTTAATGAAATAATGCCAGCCTGCTGTCTTCTGATTATCCGGAGTCACCTAGTGCAG”, the binding signal was 6010 fluorescence intensity (a.u.).

For “CAGAATTAGATTTCCCCGGGCCCACCCCTTTTCCATGGCCCGGAGTCACCTAGTGCAG”, the binding signal is 5280 fluorescence intensity (a.u.).

In the case of “ATAAATCATAATATAGACCCTATTTAGATTTGTAGTACCACGGAGTCACCTAGTGCAG”, the binding signal is 3640 fluorescence intensity (a.u.).

For the sequence “CACGCAAATTAGTTAGTTAATCCTCGAGAGAGTTTGCAAGCGGAGTCACCTAGTGCAG”, the binding signal was 22400 fluorescence intensity (a.u.).

With “CGGAGATGATTATAGATCTTTTGGAAGGAAATCTGAGTAACGGAGTCACCTAGTGCAG”, the binding signal was 18300 fluorescence intensity (a.u.).

As to “GATCATAATTGATAGAATGTAGGGAGAAGAAGTAGGGATGCGGAGTCACCTAGTGCAG”, the binding signal is 25700 fluorescence intensity (a.u.).

With “CCGCACCTAAATTGATTGATTATTAATTTAACTGCCGCTCCGGAGTCACCTAGTGCAG”, the binding signal was 65500 fluorescence intensity (a.u.).
